# Test results: the RNAGym collection of RNA variant scans (doi:10.7554/elife.90254)
# Read counts are not given, so values of variants with three or more changes are uncertain.
# B1: OR4K15 (parent)
# chain: GUUAACGGUCAUAGGCCAUGGAAACUAGGAGCACCAUUUCGCUGCCAGUGAAGAAAUGAACAAAGAAAAUCUGGGCCAGGCAGGCAUCAAAAGAAAUAGUCUUGCGCUCAACCAGAAAGUCUGUAAUCAUUUUAAGGGUA
# Variants of: B1
# Test: self-cleavage, relative activity (ratio to wild type); higher = more cleavage; in vitro, sequencing; the parent is a self-cleaving ribozyme
row,Variant,self-cleavage
1,GUUAACGGUCAUAGGCCAUGGAGACUAGGAGCACCAUAUCGCUGCCAGUGUAGAAAUGAACAAAGAAAAUCUGGGCCAGGCAGGCAUCAAAAGGAAUAGUCUUGCGCUCAACCAGAAAGUCUGUAAUCAUUUUAAGGGUA [A23G U38A A51U A94G],1.46
2,GUUAACGGUCAUAGGCCAUGGAAACCAGGAGCACCAUCUCGCUGCCAGUGAAGAAAUGAACAAAGAAAAUCUGGGCCAGGCAGGCAUCAAAAGAAAUAGUCUUGCGCUCAACCAGAAAGCCUGUAAUCAUUUUAAGGGUA [U26C U38C U120C],0.42
3,GUUAACGGUCAUAGGCCAUGGAUACUAGGAGCACCAUUUCGCUGCCAGUGAAGAAAUGAACUAAGAAAAUCUGGGCCAGGCAGGCAUCAAAAGAAGUAGUCUUGCGCUCAACCAGAAAGUCUGUAAUCAUUUUAAGGGUA [A23U A62U A96G],1.6
4,GUUAACGGUCAUAGGCCAUGGAGACUAGGAGCACCAUUUCGCUGCCAGUGAAGAGAUGAACAAAGAAAAUCUGGGCCAGGCAGGCAUCAAAAGAAAUAGUCUUGCGCUCGGCCAGAAAGUCUGUAAUCAUUUUAAGGGUA [A23G A55G A110G A111G],0.16
5,GUUAACGGCCAUAGGCCAUGGAAACUAGGAGCACCAUUUCGCUGCCAGUGAAGAAAUGAACAAAGAAAAUCUGGGCCAGGCAGGCAUCAAAAGAAAUAGUCUUGCGCUCGGCCAGAAAGUCUGUAAUCAUUUUAAGGGUA [U9C A110G A111G],0.02
6,GUUAACUGUCAUAGGCCAUGGAAGCUAGGAGCACCAUUUCGCUGCCAGUGAAGAAGUGAACAAAGAGGAUCUGGGCCAGGCAGGCAUCAAAAGAAAUAGUCUUGCGCUCAACCAGAAAGUCUGUAAUCAUUUUAAGGGUA [G7U A24G A56G A67G A68G],0.55
7,GUUAACGGUCAUAGGCCAUGGAAACUAGGAGCACCAUUUCGCUGCCAGUGAAGAAACGAACAAAGGAAAUCUGGGCCAGGCAGGCACCAAAAGAAAUAGUCUUGCGCUCAACCAGAAAGUCUGUAAUCAUUUUAAGGGUA [U57C A66G U87C],1.38
8,GUUAACGGACAUAGGCCAUGGAAACUAGGAGCACCAUUUCGCUGCCAGUGAAGAAAUGAACAAAGAAAAUCUGGGCCAGGCAGGCAUCAAAAGAAAUAGUCUCGCGCUCAACCAGAAAGUCUGUAAUCAUCUUAAGGGUA [U9A U103C U131C],0.31
9,GUUAACAGUCAUAGGCCAUGGAAACUAGGAGCACCAUUUCGCUGCCAGUGAAGAAAUGAACGAAGAAAAUCUGGGCCAGGCAGGCAUCAAAGGAAAUAGUCUUGCGCUCAACCAGAAAGUCUGUAAUCAUUUUAAGGGUA [G7A A62G A92G],1.52
10,GUUAACGGUCAUAGGCCAUGGAAACUAGGAGCACCAUUUCGCUGCCAGUGAAGAAAUGAACAAAGAAAAUCUGGGCCAGGCAGGCAUCAAAGGAAAUAGUCGUGCGCUCAACCAGAAAGUCUGUAAUCCUUUUAAGGGUA [A92G U102G A129C],0.12
11,GUUAACGGUCAUAGGCCAUGGAAACUAGGAGCACCAUUUCGCUGCCAGUGAAGAAAUGAACAAUGAAAAUCUGGGCCAGGCGGGCAUCAAAAGAGAUAGUCUUGCGCUCAACCAGAAAGUCUGUAAUCAUUUUAAGGGUA [A64U A82G A95G],0.4
12,GUUAACGGUCAUGGGCCAUGGAAACUAGGAGCACCAUUUCGCUGCCAGUGAAGAAAUGAACAAAGAAAAUCUGGGCCAGGCAGGCAUCAAAAGUAAUAGUCUUGCGCUCAACCAGAAGGUCUGUAAUCAUUUUAAGGGUA [A13G A94U A118G],0.68
13,GUUAACGGUCAUAGGCCAUGGAAACUAGGAGCACCAUUUCGCUGCCAGUGAAGAAAUGAACAAAGAAAAUCUGGGCCAGGCAGGCACCAAAAGUAAUAGUCAUGCGCUCAACCAGAAGGUCUGUAAUCAUUUUAAGGGUA [U87C A94U U102A A118G],0.6
14,GUUAACGGUCAUAGGCCAUGGAAACUAGGAGUACCAUCUCGCUGCCAGUGAAGAAAUGAACAAAGAAAAUCUGGGCCAGGCAGGUAUCAAAAGAAAUAGUCUUGCGCUCAACCAGAAAGUCUGUAAUCAUUUUAAGGGUA [C32U U38C C85U],1.82
15,GUUAACGGUCAUAGGCCAUGGAAACUAGGGGCACCAUUUCGUUGCCAGUGAAGAAAUGAACAAAGAAAACCUGGGCCAGGCAGGCAUCUAAAGGAAUAGUCUUGCGCUCAACCAGAAAGUCUGUAAUCACUUUAAGGGUA [A30G C42U U70C A89U A94G U130C],0.43
16,GUUAACGGUCAUAGGCCAUGGAAACUAGGUGCACCAUUUCGCUGCCAGUGAAGAAAUGAUCAAAGAAAAUCUGGGCCAGGCAGGCAUCAAAAGAAAUAGUCUUGCACUCAACCAGAAAGUCUGUAAUCAUUUUAAGGGUA [A30U A60U G106A],0.02
17,GUUAACGGCCAUAGGCCAUGGAAACUAGGAGCACCAUUUCGCUGCCAGUGAAGAAAUGAACAAAGAAAAUCUGGGCCAGGCAGGCAUCAAAAGAAAUAGUCGUGCGCUCAACCAGGAAGUCUGUAAUCAUUUUAAGGGUA [U9C U102G A116G],1.26
18,GAUAACGGUCAUAGGCCAUGGAAACCAGGAGCACCAUUUCGCCGCCAGUGAAGAAAUGAACAAAGAAAAUCUGGGCCAGGCAGGCACCAAAAGAAAUAGUCUUGCGCUCAACCAGAGAGUCUGUAAUCAUUUUAAGGGUA [U2A U26C U43C U87C A117G],1.88
19,GUUAACGGUCAUAGGCCAUGGAAACUAGGAGCACCAUUUCGCCGCCAGUGAAGAAAUGGACAAAGUAAAUCUGGGCCAGGCAGGCACCAAAGGAAAUAGUCUUGCGCUCAACCAGAAAGUCUGUAAUCAUUUUAAGGGUA [U43C A59G A66U U87C A92G],0.89
20,GUUAACGGUCAUAGGCCAUGGAAACUAGGAGCACCAUUUCGCUGCCUGUGAAGAAAUGAACAAAGAAAGUCUGGGCCAGGCAGGCAUCAAAAGAAAUGGUCUUGCGCUCAACCAGAAAGUCUGUAAUCAUUUUAAGGGUA [A47U A69G A98G],0.27
21,GUUAACGGUCACAGGCCAUGGAAACUAGGAGCACCAUUUCGCCGCCAGUGAAGAAAUGAACAAAGAAAAUCUGGGCCAGGCAGGCAUCAAAAGAAAUAGUCUUGCGCUCAACCAGAAAGUCUGUAUUCAUUUUAAGGGUA [U12C U43C A126U],0.54

row,Variant,self-cleavage
1,GUUAACGGUCAUAGGCCACGGAAACUAGGAGCACCAUUUCGCUGCCAGUGAAGAAAUGAACAAAGAAAAUCUGGGCCAGGCGGGCAUCAAAAGAAACGGUCUUGCGCUCAACCAGAAAGUCUGUAAUCAUUUUAAGGGUA [U19C A82G U97C A98G],0.54
2,GUUAACGGUCAUAGGCCAUGGAAACUAGGAGCACCAUUUCGCCGCCAGUGAAGAAAUGAACAAAGAAAAUCUGGGCCAGGCAGGCAUCUAAAGAAAUAGCCUUGCGCUCAACCAGAAAGCCUGUAAUCAUUUUAAGGGUA [U43C A89U U100C U120C],2.87
3,GUUAACGGUCAUAGGCCAUGGAUACUAGGAGCACCAUCUCGCUGCCAGUGAAGAAAUGAACAAAGAGAGUCUGGGCCAGGCAGGCAUCAAAAGAAAUAGUCUUGCGGUCAACCAGAAAGCCUGUAAUCAUUUUAAGGGUA [A23U U38C A67G A69G C107G U120C],0.06
4,GUUAGCGGUCAUAGGCCAUGGAAACUAGGAGCACCACUUCGCUGCCAGUGAAGAAAUGAACGAAGAAAAUCUGGGCCAGGCAGGCGUCAAAAGAAAUAGUCUCGCGCUCAACCAGAAAGUCUGUAAUCAUUUUAAGGGUA [A5G U37C A62G A86G U103C],0.32
5,GUUAACGGCCAUAGGCCAUGGAAACCAGGAGCACCAUUUCGCUGCCAAUGAAGGGAUGAACAAAGAAAAUCUGGGCCAGGCAGGCAUCAAAAGAGAUAGUCUUGCGCUCAACCAGAAAGUCUGUAAUCAUUUUAAGGGUA [U9C U26C G48A A54G A55G A95G],1.23
6,GUUAACGGUCUUAGGCCGUGGAAGCUAGGAGCACCAUUUCGCUGCCAGUGAAGAAAUGAACAAAGAAAAUCUGGGCCAGGCAGGCAUCAAAAGAAAUAGCCUUGCGCUCAGCCAGAAAGUCUGUAAUCAUUUUAAGGGUA [A11U A18G A24G U100C A111G],0.18
7,GUUAACGGUCAUAGGCCAUGGAAACUAGGAGCACCAUUUCGCUGCCGGUGAAGAAAUGAGCAAAGAAAAUCUAGGCCAGGCAGGCAUCAAAAGAAAUAGUCUUGCGCUCAACCAGAAAGUCUGUAGUCAUUUUAAGGGUA [A47G A60G G73A A126G],0.03
8,GUUAGCGGUCAUAGGCCAUGGAAACUAGGAGCGCCAUUUCGCUGCCAGUGAAGAAACGAACAAAGAAAAUCUGGGCCAGGCAGGCAUCAAAAGAAAUAGUCUUGCGCUCAACCAGACAGUCUGUAAUCGUUUUAAGGGUA [A5G A33G U57C A117C A129G],0.43
9,GUUAACGGUCAGAGGCCAUGGAAACUAGGAGCACCAUUUCGCUGCCAGCGAAGAAAUGAACAAAGAAAGUCUGGGCCAGGCAGGCAUCAAAAGAAAUAGUCUUGCGCUCAACCAGAAAGUCUGUAAUCAUCUUAAGGGUA [U12G U49C A69G U131C],1.39
10,GUUAACGGUCAUAGGCCAUGGAAACUAGGAGCACCAUUCCGCUGCCAGUGAGGAAAUGAACAAAGAAAAUCUGGGCCAGGCAGGCAUCAAAAGAAAUAGUCUUGCGCUCAACCAGGAAGUCUGUAAUCAUUUUAAGGGUA [U39C A52G A116G],0.6
11,GUUAACGGUCAUAGGCCGUGGGAACUAGGAGCACCAUUUCGCUGCCAGUGAAGAAAUGAACAAAGAAAAUCUGGGCCAGGCAGGCAUCAAAAGAAAUAGUCUUGCGCUCAACCAGAAAGUCUGCAAUCAUUUUAAGGGUA [A18G A22G U124C],0.82
12,GUUAACGGUCAUAGGCCAUGGAAACUAGGAGCACCAUUUCGCUGCCAGUGAAGAAAUGAACAAAGAAAAUCUGGGCCAGGCAGGCAUCAAUAGAAAUAGUCCUGCCCUCAACCAGAAAGUCUGUAAUCAUUUUAAGGGUA [A91U U102C G106C],0.01
13,GUUAACGGUCAUAGGCCAUGGAAACUAGGAGCACCAUUUCGCUGCCAGUGAAGAAACGAACAAAGAAAAUCUGGGCCAGGCAGGCAUCAAAAGGAAUAGUCUUGCGCUCAACCGGAAAGUCUGUAAUCAUUUUAUGGGUA [U57C A94G A114G A135U],0.14
14,GUUAGCGGUCAUAGGCCAUGGAAACUAGGAGCACCAUUUCGCUGCCGGUGAAGGAAUGAACAAAGAAAAUCUGGGCCAGGCAGGCAUCAAGAGAAAUAGUCUUGCGCUCAACCAGAAAGUCUGUAAUCAUUUUAAGGGUA [A5G A47G A54G A91G],0.55
15,GUUAACGGUCAUAGGCCAUGGGAACUAGGAGCACCAUUUCGCUGCCAGUGAAGAAAUGGACAAAGAGAAUCUGGGCCAGGCAGGCAUCAAAAGAAAUAGUCUUGCGCUCAACCAGAAAGUCUGUAAUCAUUUUAAGGGUA [A22G A59G A67G],1.32
16,GUUAACGGUCAUAGGCCAUGGAAACUGGGUGCACCAUUUCGCUGCCAGUGAAGAAAUGAACAAAGAAAAUCUGGGCCAGGCAGGCAUCAAAAGAAAUAGUCUUGCGCGCAACCAGAAAGUCUGUAAUCAUUUUAAGGGUA [A27G A30U U108G],0
17,GUUAACGGUCAUAGGCCAUGGAAACUAGGAGCACCAUUUCGCUGCCAGUGAAGAAAUGAACCAAGAGAAUCUGGGCCAGGCAGGCAUCAAAAGAAAUAGUCUUGCGCUCAACCAGAAAGUCUGUAAUCAUCUUAAGGGUA [A62C A67G U131C],2.12
18,GUUAACGGUCAUAGGCCAUGGAAACUAGGAGCUCCAUUUCGCUGCCAGUGAAGAAAUGAACAAAGAAAAUCUGGGCCAGGCAGGCAUCAAUAGAAAUAGUCUUGCGCUCAACCAGAAGGUCCGUAAUCAUUUUAAGGGUA [A33U A91U A118G U122C],1.9
19,GUUAACGGCCUUAGGCCAUGGAAACUAGGAGCACCAUUUCGCUGCCAGUGAAGAAAUGAACAAAGAAAAUCUGGGCCAGGCAGGCAUCAAAAGAAAUAGUCUUGCGCUCAGCCAGAAAGUCUGUAAUCAUUUUAAGGGUA [U9C A11U A111G],0.04
20,GUUAACGGUCAUAGGCCAUGGAAACUAGGAGCACCAUCUCGCUGCCAGUGAAGAAAUGAACAAAGAAAAUCAGGGCCAGGCAGGCAUCAAAAGAAAUAGUCUUGCGCUCAACCAGAAAGUCUGUAAUCAUCUUAAGGGUA [U38C U72A U131C],0.25
